# From PubChem BioAssay (Tox21)
# Where “and” joins values, the source holds several entries; their conditions need not be identical. Identical values can stand only once. This list was built around the results that the source calls inconclusive (neither active nor inactive); the mix of calls is not that of the screen. Entries that show only a call come without a potency. For part of these data: Potencies of inconclusive entries are doubtful fits and often do not repeat. Calls of active or inactive are those of the source. Unless noted, the call rests on the fitted dose curve; in most records, active means well fitted curve in the direction sought with a large enough effect in the repeat runs; inconclusive means weak or mixed curves; inactive means no such curve, though single readings can be large; an effect the other way counts as inactive or inconclusive.
# Experiments:
# [1] = qHTS assay for small molecule disruptors of the mitochondrial membrane potential - cell viability (AID 720634; calls by dose curve;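 further: human HepG2 liver cancer cells; nearly all actives have a fitted effect of over 20% in size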)
# Procedure, shortened: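 After overnight attachment at 37 C, HepG2 cells received compound or DMSO vehicle for 1 hr. Viability is then taken from ATP-driven luminescence following a 30 min room-temperature CellTiter-Glo step.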
# [2] = qHTS assay to identify small molecule agonists of the sonic hedgehog signaling (Shh) pathway - cell viability counter screen (AID 1259366); further: nearly all actives have a fitted effect of over 50% in size; further: potency means the concentration at half of the fitted maximal effect
# Procedure, shortened: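 Cytotoxicity counter screen: CellTiter-Fluor reagent added after 23 h compound exposure, then 1 h at 37C and fluorescence read. Cells were 3T3 Gli1-Luc, seeded 2,000 per well and dosed 4 h post-plating.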
# [3] = qHTS assay to identify small molecule agonists of the TGF-beta/Smad signaling pathway (AID 1346859; active means well fitted activation curve with a large enough effect in the signal ratio in the repeat runs, not every such curve was filed as active; inconclusive means weak or mixed curves; the % refers to the signal ratio; further: potency means the concentration at half of the fitted maximal effect)
# Procedure, shortened: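 Fluorescence (ex 405 nm; em 460 and 530 nm) was read 2 h after LiveBLAzer FRET substrate at RT. The preceding compound treatment of overnight-plated SBE-bla HEK293T cells lasted 5 h at 37 C.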
# [4] = qHTS assay to identify small molecule HDAC inhibitors (AID 1259364); further: nearly all actives have a fitted effect of over 45% in size; further: potency means the concentration at half of the fitted maximal effect
# Procedure, shortened: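 Homogeneous cell-based luminescent assay of endogenous class I/II HDAC activity; HCT-116 cells, 2 h compound exposure, 30 min HDAC-Glo development at RT.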
# [5] = qHTS assay to identify small molecule antagonists of the sonic hedgehog signaling (Shh) pathway - cell viability counter screen (AID 1259367); further: nearly all actives have a fitted effect of over 55% in size; further: potency means the concentration at half of the fitted maximal effect
# Procedure, shortened: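 After a 4 hr settling period, 3T3 Gli1-Luc cells were treated with DMSO-dissolved chemicals and conditioned medium, kept 24 hr at 37C in 5% CO2, and assayed for viability by CellTiter-Fluor fluorescence following 1 hr reagent incubation.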
# [6] = qHTS assay for small molecules that induce genotoxicity in human embryonic kidney cells expressing luciferase-tagged ATAD5 (AID 651632); further: nearly all actives have a fitted effect of over 15% in size; further: potency means the concentration at half of the fitted maximal effect
# Procedure, shortened: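 Increased luciferase signal from ATAD5-tagged reporter cells indicates DNA-damage-driven ATAD5 induction. HEK293T cells are treated for 16 hr at 37C before detection with Amplite.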
# [7] = qHTS assay to identify small molecule antagonists of the glucocorticoid receptor (GR) signaling pathway - cell viability counter screen (AID 720693); settings: GR-bla HeLa viability, CellTiter-Glo luminescence, 18 h, with 5 nM dexamethasone present; viability change, negative = cytotoxic: at 58.5 µM (top of the series); further: nearly all actives have a fitted effect of over 55% in size; further: potency means the concentration at half of the fitted maximal effect
# [8] = qHTS assay to identify small molecule antagonists of the estrogen related receptor (ERR) signaling pathway from Tox21 library - cell viability counter screen (AID 1224834); further: nearly all actives have a fitted effect of over 30% in size; further: potency means the concentration at half of the fitted maximal effect
# Procedure, shortened: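 Cytotoxicity of test substances is gauged in the same ERR cells used for the antagonist screen, after 17.5 h of compound treatment at 37 C, by CellTiter-Fluor fluorescence measured after 30 min.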
# [9] = biological target: Estrogen receptor (Homo sapiens) (UniProt P03372); test: qHTS assay to identify small molecule antagonists of the estrogen receptor alpha (ER-alpha) signaling pathway using the BG1 cell line in the presence of 0.1 nM 17-beta-estradiol (AID 1259244); further: nearly all actives have a fitted effect of over 50% in size; further: potency means the concentration at half of the fitted maximal effect
# Procedure, shortened: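 After 5 days in hormone-depleted medium (charcoal-stripped serum, no phenol red), VM7Luc4E2 cells were seeded, incubated 24 h, then co-treated with compound and 0.1 nM (final) estradiol for 22 h before luminescence detection.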
# [10] = A CellTox Green Cytotoxicity Assay to monitor cytotoxicity in HEK293 cells - 16 hour (AID 1224888); further: nearly all actives have a fitted effect of over 35% in size; further: potency means the concentration at half of the fitted maximal effect
# Procedure, shortened: (§1)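 Cytotoxicity was tracked continuously in HEK293 cells by a DNA-binding dye excluded from viable cells. Compounds were transferred in DMSO 5 h after seeding; fluorescence was recorded at intervals up to 40 h.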
# [11] = biological target: Peroxisome proliferator-activated receptor delta (Homo sapiens) (UniProt Q03181); test: qHTS assay to identify small molecule agonists of the peroxisome proliferator-activated receptor delta (PPARd) signaling pathway (AID 743212; calls by dose curve;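 further: HEK293H cells with PPARd UAS beta-lactamase reporter GeneBLAzer system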; further: potency means the concentration at half of the fitted maximal effect); settings: HEK293H PPARd-UAS-bla, beta-lactamase FRET ratio, 17 h; activation: at 62.6 µM (top of the series) unless noted
# Procedure, shortened: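 A PPARd-bla HEK293H line with beta-lactamase under an Upstream Activator Sequence is treated with compounds at 37 C. Substrate loading for 2 h at room temperature precedes the fluorescence measurement.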
# [12] = A CellTox Green Cytotoxicity Assay to monitor cytotoxicity in HepG2 cells - 32 hour (AID 1224883); further: nearly all actives have a fitted effect of over 50% in size; further: potency means the concentration at half of the fitted maximal effect
# Procedure, shortened: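 Real-time, homogeneous cytotoxicity readout: dead-cell DNA staining by CellTox Green in HepG2 monolayers, fluorescence measured at timed intervals up to 40 h of continuous compound exposure.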
# [13] = qHTS assay to identify small molecule agonists of the hypoxia (HIF-1) signaling pathway - cell viability counter screen (AID 1224844; calls by dose curve; further: nearly all actives have a fitted effect of over 50% in size)
# Procedure, shortened: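 Tox21 10K compounds were added to HRE-bla ME-180 cells (0.5% dialyzed FBS) and incubated 17 hrs at 37C; ATP-based CellTiter-Glo luminescence then reported cell viability in the same wells.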
# [14] = biological target: Cytochrome P450 3A4 (Homo sapiens) (UniProt P08684); test: Cytochrome P450 Family 3 Subfamily A Member 4 (CYP3A4) small molecule antagonists: luciferase reporter qHTS assay (AID 1671201); further: nearly all actives have a fitted effect of over 50% in size; further: potency means the concentration at half of the fitted maximal effect
# Procedure, shortened: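 Recombinant human CYP3A4 converts a proluciferin substrate to luciferin over 1 h at room temperature after NADPH regeneration solution is added (compound preincubated 10 min); detection reagent stops reaction, luminescence read 20 min later as relative units.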
# [15] = A CellTox Green Cytotoxicity Assay to monitor cytotoxicity in HEK293 cells - 32 hour (AID 1224881); further: nearly all actives have a fitted effect of over 40% in size; further: potency means the concentration at half of the fitted maximal effect
# Procedure, shortened: as §1
# [16] = qHTS RealTime-Glo MT Cell Viability Assay in HEK293 cells - 0 hour (AID 1224880); further: nearly all actives have a fitted effect of over 45% in size; further: potency means the concentration at half of the fitted maximal effect; on activity change, negative = cytotoxicity: top concentration of the series differs between compounds
# Procedure, shortened: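 Nonlytic bioluminescent viability monitoring. HEK293 at 600 cells/well with reagent; 5 h settle; compound transfer by pintool; plates held at 37 C and read at set time points.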
# [17] = qHTS assay to identify small molecule antagonists of the estrogen receptor alpha (ER-alpha) signaling pathway using the BG1 cell line - cell viability counter screen (AID 743081); settings: BG1Luc4E2 viability, CellTiter-Fluor, 22 h; activity change, negative = cytotoxicity: at 70.3 µM (top of the series) unless noted;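 further: compound given together with 17beta-estradiol as the ER stimulus; potency means the concentration at half of the fitted maximal effect; nearly all actives have a fitted effect of over 45% in size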
# [18] = biological target: Nuclear receptor subfamily 1 group I member 3 (Homo sapiens) (UniProt Q14994); test: qHTS assay to identify small molecule agonists of the constitutive androstane receptor (CAR) signaling pathway (AID 1224839); further: nearly all actives have a fitted effect of over 15% in size; further: potency means the concentration at half of the fitted maximal effect;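 on activation: HepG2 cells stably carrying human CAR and a CYP2B6 luciferase reporter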
# Procedure, shortened: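 Luminescent ONE-Glo read-out after 24 hr, 37 C exposure of double-stable HepG2-CYP2B6-hCAR reporter cells to a 15-point compound series, in the presence of 0.75 uM PK11195 (final).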
# Tags describe the fitted curve by direction and shape or compound fluorescence and quenching.
# Sequence of UniProt Q03181 (Q03181 whole entry, looked up): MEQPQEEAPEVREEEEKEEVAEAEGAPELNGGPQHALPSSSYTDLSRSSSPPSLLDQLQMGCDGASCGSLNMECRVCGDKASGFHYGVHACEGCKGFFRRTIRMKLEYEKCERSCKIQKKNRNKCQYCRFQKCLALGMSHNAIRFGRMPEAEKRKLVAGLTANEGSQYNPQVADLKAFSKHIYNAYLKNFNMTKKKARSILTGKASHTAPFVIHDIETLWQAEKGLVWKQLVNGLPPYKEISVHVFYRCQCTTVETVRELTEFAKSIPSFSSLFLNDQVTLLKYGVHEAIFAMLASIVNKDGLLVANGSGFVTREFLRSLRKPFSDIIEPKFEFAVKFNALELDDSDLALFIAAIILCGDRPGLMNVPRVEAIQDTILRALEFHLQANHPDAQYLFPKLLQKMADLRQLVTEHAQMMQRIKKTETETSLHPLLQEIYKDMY
# Sequence of UniProt P03372 (P03372 whole entry, looked up): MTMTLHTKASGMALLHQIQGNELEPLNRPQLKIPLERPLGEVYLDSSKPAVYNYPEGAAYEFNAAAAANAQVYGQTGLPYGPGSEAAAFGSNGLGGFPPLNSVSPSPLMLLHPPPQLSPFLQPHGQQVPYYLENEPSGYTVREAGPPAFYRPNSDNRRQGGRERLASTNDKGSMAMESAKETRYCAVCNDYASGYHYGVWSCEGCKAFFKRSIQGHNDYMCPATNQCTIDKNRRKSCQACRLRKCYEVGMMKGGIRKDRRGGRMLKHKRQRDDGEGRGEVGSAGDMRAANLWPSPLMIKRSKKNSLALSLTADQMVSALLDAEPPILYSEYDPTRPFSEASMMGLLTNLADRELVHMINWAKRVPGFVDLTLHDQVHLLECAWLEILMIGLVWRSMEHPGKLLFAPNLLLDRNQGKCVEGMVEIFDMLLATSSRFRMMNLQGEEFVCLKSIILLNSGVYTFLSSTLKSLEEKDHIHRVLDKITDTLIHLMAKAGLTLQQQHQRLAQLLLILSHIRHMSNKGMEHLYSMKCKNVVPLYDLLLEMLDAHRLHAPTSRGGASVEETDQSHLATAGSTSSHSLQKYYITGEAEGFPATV
# Sequence of UniProt Q14994 (Q14994 whole entry, looked up): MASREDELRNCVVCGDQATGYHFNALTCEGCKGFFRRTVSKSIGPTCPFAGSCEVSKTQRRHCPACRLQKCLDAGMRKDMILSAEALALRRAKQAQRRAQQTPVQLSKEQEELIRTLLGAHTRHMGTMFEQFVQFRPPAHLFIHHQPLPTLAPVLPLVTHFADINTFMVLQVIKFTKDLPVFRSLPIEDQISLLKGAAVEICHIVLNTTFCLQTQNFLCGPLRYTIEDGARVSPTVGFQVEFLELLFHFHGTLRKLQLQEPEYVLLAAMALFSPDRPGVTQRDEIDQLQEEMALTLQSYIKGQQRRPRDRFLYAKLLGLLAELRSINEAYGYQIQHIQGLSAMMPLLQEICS
# Sequence of UniProt P08684 (P08684 whole entry, looked up): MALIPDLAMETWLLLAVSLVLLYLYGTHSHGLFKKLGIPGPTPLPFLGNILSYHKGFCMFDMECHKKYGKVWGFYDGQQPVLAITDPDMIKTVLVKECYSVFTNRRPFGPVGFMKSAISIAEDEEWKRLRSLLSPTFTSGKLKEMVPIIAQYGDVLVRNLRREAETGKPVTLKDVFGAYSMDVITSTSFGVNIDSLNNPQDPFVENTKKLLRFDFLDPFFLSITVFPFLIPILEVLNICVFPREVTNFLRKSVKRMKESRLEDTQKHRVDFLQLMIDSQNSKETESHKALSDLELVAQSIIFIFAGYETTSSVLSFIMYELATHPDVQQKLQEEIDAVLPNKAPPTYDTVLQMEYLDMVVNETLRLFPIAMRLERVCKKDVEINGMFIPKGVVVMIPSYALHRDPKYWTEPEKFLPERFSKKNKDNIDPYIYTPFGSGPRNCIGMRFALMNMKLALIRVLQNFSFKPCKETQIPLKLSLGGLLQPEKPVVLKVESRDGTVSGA
compound,measurement,setting,value
O=C(O)c1ccc(Cl)cc1Cl,Potency,[1],inactive
same,Potency,[2],inactive
same,Potency,[3],inactive
C=C(C)[C@H]1CC=C(C)CC1,Potency,[4],inactive
same,Potency,[2],"inconclusive: 61.1 µM [cytotoxic, partial curve, poor fit]"
same,Potency,[5],"inconclusive: 48.5 µM [cytotoxic, partial curve, poor fit]"
CN=C(NC#N)NCCSCc1nc[nH]c1C,Potency,[1],inactive
CCOC(=O)c1ccc(N)cc1,Potency,[6],"inconclusive: 43.3 µM [activator, partial curve, poor fit]"
same,Potency,[1],inactive
same,Potency,[7],"inconclusive: 0.456 µM [rising, full curve, poor fit]"
same,Potency,[8],"inconclusive: 15.4 µM [cytotoxic, full curve] and inconclusive: 10.6 µM [cytotoxic, full curve]"
CCCCCCCCOC(C)=O,Potency,[8],inactive
CCc1cccc(CC)c1,Potency,[8],inactive
COc1cc(C(=O)NCc2ccc(OCCN(C)C)cc2)cc(OC)c1OC,Potency,[9],"inconclusive: 18.8 µM [inhibitor, partial curve]"
C=CCS(=O)(=O)O,Potency,[2],inactive
CC(C)COC(=O)COc1ccc(Cl)cc1Cl,Potency,[10],"inconclusive: 61.6 µM [activator, single point]"
FC(F)(F)c1ccccc1-n1ccnc1,Potency,[11],"inconclusive: 37.6 µM [falling, partial curve, poor fit]"
same,Potency,[3],inactive
CCCCCCCCCCCCCCCCC,Potency,[12],inactive
same,Potency,[3],inactive
CC(=O)c1ccccc1[N+](=O)[O-],Potency,[11],inactive
same,Potency,[13],inactive
same,Potency,[4],"inconclusive: 53.5 µM [inhibitor, partial curve, poor fit]"
CCCCC(CC)COC(=O)CCCCC(=O)OCC(CC)CCCC (stereo not drawn),activation,[11],inconclusive: 8.67%
same,Potency,[10],inactive
same,Potency,[14],"inconclusive: 10 µM [inhibitor, full curve]"
CCC(C)(CN(C)C)OC(=O)c1ccccc1 (stereo not drawn),Potency,[15],inactive
same,Potency,[12],inactive
CN(C)CCCO[C@@H]1[C@H]2OC(C)(C)O[C@H]2O[C@@H]1C(O)CO (stereo partly drawn),Potency,[9],inactive
C[N+](C)(C)CC(O)CCl (stereo not drawn),Potency,[6],inactive
CCN(CC)CCOCCOC(=O)C1(c2ccccc2)CCCC1,Potency,[2],"inconclusive: 15 µM [cytotoxic, partial curve]"
same,Potency,[5],"inconclusive: 15 µM [cytotoxic, partial curve]"
same,Potency,[3],inactive
COc1cc(-c2ccc(=O)[nH]n2)ccc1OC(F)F,Potency,[7],"inconclusive: 2.13 µM [cytotoxic, partial curve, poor fit]"
same,Potency,[16],inactive
same,Potency,[9],"inconclusive: 59.6 µM [inhibitor, partial curve, poor fit]"
CC(=O)OCC(=O)Nc1cc(C#N)cc(NC(=O)COC(C)=O)c1Cl,Potency,[17],"inconclusive: 6.68 µM [rising, full curve, poor fit]"
C[C@]12CCC(=O)C=C1CC[C@@H]1[C@@H]2[C@@H](O)C[C@@]2(C)[C@H]1CC[C@]2(O)C(=O)CO,Potency,[6],"inconclusive: 0.0422 µM [activator, full curve, poor fit]"
c1ccc2c(c1)Cc1ccccc1-2,Potency,[15],"inconclusive: 39.5 µM [activator, partial curve] and inconclusive: 54.9 µM [activator, single point]"
same,Potency,[5],inactive
CCN(CC)CC,Potency,[13],inactive
same,Potency,[15],inactive
CCCCCCCC/C=C\CCCCCCCC(=O)OC(CO)CO,activation,[11],inconclusive: 6.87%
same,Potency,[16],"inconclusive: 1.95 µM [falling, full curve]"
same,Potency,[10],inactive
COc1ccc(NC(C)=O)cc1N,Potency,[13],inactive
CCNC(=O)/C=C/c1cccc(Br)c1,Potency,[4],"inconclusive: 33.5 µM [inhibitor, single point]"
same,Potency,[2],inactive
NNC(=O)CCCCC(=O)NN,Potency,[17],"inconclusive: 68.6 µM [rising, partial curve, poor fit]"
same,Potency,[9],inactive
N[C@@H]1CONC1=O,Potency,[7],"inconclusive: 26.8 µM [cytotoxic, single point]"
same,Potency,[11],"inconclusive: 13.3 µM [falling, single point]"
same,Potency,[18],inactive
same,Potency,[12],"inconclusive: 10.7 µM [activator, single point]"
C=CC(OCC)OCC,Potency,[6],"inconclusive: 48 µM [activator, partial curve, poor fit]"
same,Potency,[8],inactive
same,Potency,[16],inactive
same,Potency,[15],inactive
same,Potency,[3],inactive
CC(CC=O)CC(C)(C)C (stereo not drawn),Potency,[18],inactive
CCCCC(CC)CNC(=O)CC(C)OC(=O)CCC(=O)O (stereo not drawn),Potency,[16],inactive
same,Potency,[12],"inconclusive: 26.8 µM [activator, single point]"
Nc1ccc2cc(S(=O)(=O)O)cc(O)c2c1,Potency,[7],inactive
same,Potency,[8],"inconclusive: 38.3 µM [cytotoxic, partial curve]"
same,Potency,[13],inactive
same,Potency,[16],"inconclusive: 17.3 µM [falling, partial curve, poor fit]"
CC1(N)CCC(C(C)(C)N)CC1 (stereo not drawn),Potency,[8],inactive
FC(F)(F)C(F)(F)C(F)(F)C(F)(F)C(F)(F)C(F)(F)C(F)(F)C(F)(F)Br,Potency,[9],inactive
same,Potency,[5],inactive
same,Potency,[14],inactive
O=S(=O)(O)SSS(=O)(=O)O,Potency,[16],inactive
CC(=O)Nc1ccc(OCC(O)CNC(C)C)cc1 (stereo not drawn),Potency,[16],"inconclusive: 12 µM [rising, partial curve, poor fit]"
CC(=O)Nc1ccc(S(=O)(=O)Nc2ccc([N+](=O)[O-])cc2)cc1,Potency,[17],"inconclusive: 33.5 µM [cytotoxic, single point]"
same,Potency,[2],"inconclusive: 23.7 µM [cytotoxic, partial curve]"
same,Potency,[5],"inconclusive: 29.8 µM [cytotoxic, partial curve]"
Cc1cnc(C(=O)NCCc2ccc(S(=O)(=O)NC(=O)NC3CCCCC3)cc2)cn1,Potency,[7],inactive
same,Potency,[16],"inconclusive: 12.3 µM [falling, single point]"
same,Potency,[3],"inconclusive: 54.9 µM [rising, partial curve, poor fit]"
CCCCCCCCCCCCCCCCO,Potency,[12],inactive
Oc1ccccc1-c1nnco1,Potency,[8],inactive
C[N+](C)(C)CCCCCCCCCC[N+](C)(C)C,Potency,[18],inactive
COc1cc2c(cc1OC)C(=O)C(CC1CCN(Cc3ccccc3)CC1)C2 (stereo not drawn),Potency,[12],"inconclusive: 13.4 µM [activator, partial curve]"
CC(C)=CCC/C(C)=C/C#N,Potency,[18],inactive
O=C(O)c1ccccc1C(=O)OCc1ccccc1,Potency,[6],"inconclusive: 77 µM [activator, partial curve, poor fit]"
same,Potency,[11],inactive
same,Potency,[18],"inconclusive: 54.5 µM [activator, partial curve]"
O=C1C(c2[nH]c3ccccc3c2O)=Nc2ccccc21,Potency,[11],inactive
same,Potency,[18],"inconclusive: 26.6 µM [activator, partial curve]"
same,Potency,[4],"inconclusive: 13.3 µM [inhibitor, full curve, poor fit]"
CN1CCN(c2cc3c(nn2)Oc2ccccc2N3C)CC1,Potency,[6],"inconclusive: 13.3 µM [activator, partial curve, poor fit]"
same,"activity change, negative = cytotoxicity",[13],inactive: 1.97% [at 15.8 µM]
O=C(NCCc1c[nH]c2ccccc12)c1cccnc1,Potency,[4],"inconclusive: 13.3 µM [inhibitor, partial curve, poor fit]"
same,Potency,[3],inactive
